Here are results for 48 molecules from PubChem BioAssay AID2528 (National Center for Advancing Translational Sciences (NCATS), 2010).

About 700 (0.2%) of roughly 350,000 compounds were called active. The call rests on the fitted dose curve; in most records, active means well fitted inhibition curve with a large enough effect; inconclusive means small, poorly fitted or top-dose-only effect; inactive means flat fitted curve, though single readings scatter. The list shows a part of the results, in another mix than the full data.
Potency means the concentration at half of the fitted maximal effect.

For this assay, the target named is RecQ-like DNA helicase BLM (Homo sapiens) (UniProt P54132). Description: qHTS Assay for Inhibitors of Bloom's syndrome helicase (BLM). Further: nearly all actives have a fitted effect of over 35% in size.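 On activity change, negative = inhibition: plate controls were vehicle for no effect and no enzyme for full effect.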 To be noted: recombinant BLM DNA unwinding, fluorescence dequenching; series mostly up to 56.1 µM; activity change, negative = inhibition: at the top concentration. (In general: qHTS replaces the single test concentration by a dilution series.)
UniProt P54132, sequence (P54132 whole entry, looked up): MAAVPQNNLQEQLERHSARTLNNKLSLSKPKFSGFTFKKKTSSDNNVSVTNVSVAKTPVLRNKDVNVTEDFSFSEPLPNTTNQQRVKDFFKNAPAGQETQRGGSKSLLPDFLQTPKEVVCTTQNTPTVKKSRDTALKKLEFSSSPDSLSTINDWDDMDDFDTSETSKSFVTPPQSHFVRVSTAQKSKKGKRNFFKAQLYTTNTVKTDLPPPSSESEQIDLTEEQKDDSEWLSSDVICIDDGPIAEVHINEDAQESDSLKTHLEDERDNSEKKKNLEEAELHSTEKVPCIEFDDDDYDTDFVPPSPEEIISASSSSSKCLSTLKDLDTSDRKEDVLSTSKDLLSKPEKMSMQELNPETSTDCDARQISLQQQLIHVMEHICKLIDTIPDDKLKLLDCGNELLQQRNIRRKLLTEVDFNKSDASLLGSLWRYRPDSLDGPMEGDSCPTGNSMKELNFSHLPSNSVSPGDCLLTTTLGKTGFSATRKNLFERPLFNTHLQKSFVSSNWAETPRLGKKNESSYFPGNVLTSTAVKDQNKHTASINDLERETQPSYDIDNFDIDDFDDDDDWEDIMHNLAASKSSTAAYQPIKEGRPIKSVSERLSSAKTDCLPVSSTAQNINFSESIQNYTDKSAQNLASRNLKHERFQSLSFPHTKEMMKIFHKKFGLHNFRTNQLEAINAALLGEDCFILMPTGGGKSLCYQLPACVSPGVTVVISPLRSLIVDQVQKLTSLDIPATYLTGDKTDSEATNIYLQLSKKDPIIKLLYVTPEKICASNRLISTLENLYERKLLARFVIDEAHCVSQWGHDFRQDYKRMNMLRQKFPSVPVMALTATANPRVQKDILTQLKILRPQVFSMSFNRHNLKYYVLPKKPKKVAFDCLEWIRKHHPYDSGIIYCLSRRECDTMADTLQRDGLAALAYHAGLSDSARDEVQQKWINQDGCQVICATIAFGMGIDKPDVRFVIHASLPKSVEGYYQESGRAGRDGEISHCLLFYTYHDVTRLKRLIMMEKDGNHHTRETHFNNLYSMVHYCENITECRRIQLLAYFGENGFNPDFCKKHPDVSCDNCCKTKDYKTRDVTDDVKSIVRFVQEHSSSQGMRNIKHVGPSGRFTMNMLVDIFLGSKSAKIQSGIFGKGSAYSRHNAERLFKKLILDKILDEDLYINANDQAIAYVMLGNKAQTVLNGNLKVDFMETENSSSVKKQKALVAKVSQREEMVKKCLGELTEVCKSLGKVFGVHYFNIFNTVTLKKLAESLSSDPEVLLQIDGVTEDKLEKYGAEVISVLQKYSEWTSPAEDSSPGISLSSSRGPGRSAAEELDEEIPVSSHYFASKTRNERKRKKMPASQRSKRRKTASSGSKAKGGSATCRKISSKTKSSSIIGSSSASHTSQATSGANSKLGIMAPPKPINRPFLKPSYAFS
On to `Cc1cc(=O)c2c(O)c3c(O)cc(O)c4c5c(O)cc(O)c6c(O)c7c(=O)cc(C)c8c1c2c(c34)c(c65)c78`, for which the Potency was active: 20 µM.

On to `c1ccc(CSc2nnc(-c3ccco3)c(-c3ccco3)n2)cc1`, for which the Potency is active: 14.1 µM.

`C/C=C1\C(=O)CC2C3CCC4=CC(=O)CC[C@]4(C)C3CC[C@]12C` (stereo partly drawn): the “activity change, negative = inhibition” value is inactive: -6.71%.

In the case of `Cc1cc(C(=O)O)ccc1-c1ccc(/C=C2\SC(=O)N(CC(=O)Nc3ccc4c(c3)OCO4)C2=O)o1`, the Potency is active: 11.2 µM.

In the case of `O=C(O)[C@@H]1C[C@@H](C(=O)O)N1`, the “activity change, negative = inhibition” value is inactive: -1.56%.

`CC(C)NCC(O)c1ccc(NS(C)(=O)=O)cc1` (stereo not drawn): the Potency result was “inactive”.

For `CC1=C(C)C(=O)C(CCCCC#CCCCC#CCO)=C(C)C1=O`, the “activity change, negative = inhibition” value is inactive: -12.1%.

On to `COc1cc2c(cc1O)CC[C@@H]1[C@@H]2CC[C@]2(C)[C@@H](O)CC[C@@H]12`, for which the “activity change, negative = inhibition” value was inactive: -7.84%.

Turning to `CC12C=C(/C=C/CCc3ccco3)C(C)(C1)[C@H](CCc1ccco1)CC2=O` (stereo partly drawn), the “activity change, negative = inhibition” value is inactive: -3.52%.

As for `CCCCCCCCCCCCCCCCCCOC[C@H](COP(=O)([O-])OCC[N+](C)(C)C)OC`, the “activity change, negative = inhibition” value was inactive: -4.01%.

On to `CO[C@]1(C2=NCCN2)COc2ccccc2O1`, for which the “activity change, negative = inhibition” value is inactive: 4.25%.

On to `CCc1ccc(S(=O)(=O)/N=C2\C=C(Nc3cccc(C(=O)O)c3)C(=O)c3ccccc32)cc1`, for which the Potency was active: 25.1 µM.

`COc1ccc([C@@H]2CNC(=O)C2)cc1OC1CCCC1`: the Potency entry is “inactive”.

`COc1ccc2nc3cccc(OC)c3nc2c1`: the Potency was active: 3.55 µM.

For `CC(=O)c1sc2nc(CSc3nnnn3-c3ccccc3)[nH]c(=O)c2c1C`, the Potency was active: 15.8 µM.

Take `O=C(O)C1Nc2ccc(Br)cc2C2C=CCC12` (stereo not drawn): the Potency is active: 15.8 µM.

As for `COc1ccc(CCN(C)CCc2ccc(OC)c(OC)c2)cc1OC`, the “activity change, negative = inhibition” value is inactive: -6.14%.

As to `CC#C[C@@]1(O)CC[C@H]2[C@@H]3CCC4=CC(=O)CCC4=C3[C@H](c3ccc(N(C)C)cc3)C[C@]21C`, the “activity change, negative = inhibition” value is inactive: -0.828% [at 21.4 µM].

As for `N#Cc1c(NC(=O)CSc2ncnc3sccc23)oc(-c2ccco2)c1-c1ccco1`, the Potency is active: 20 µM.

As for `CN(C)CC[C@H](c1ccc(Cl)cc1)c1ccccn1`, the “activity change, negative = inhibition” value was inactive: 1.23% [at 21.4 µM].

Consider `Cn1c(=O)c(C(=O)COC(=O)c2cc(-c3ccco3)nc3ccccc23)c(N)n(Cc2ccccc2)c1=O`, for which the “activity change, negative = inhibition” value is inactive: -18.5%.

For the molecule `NC(=O)CC[C@@H](N)C(=O)O`, the “activity change, negative = inhibition” value is inactive: -8.79%.

Turning to `CC(C)(C)NC[C@H](O)COc1nsnc1N1CCOCC1`, the Potency entry is “inactive”.

Regarding `CC(C)Cn1c(N)c(C(=O)NCC2CCCO2)c2nc3ccccc3nc21` (stereo not drawn), the Potency is active: 8.91 µM.

In the case of `CO[C@]1(NC(=O)CSCC#N)C(=O)N2C(C(=O)O)=C(CSc3nnnn3C)CS[C@H]21`, the “activity change, negative = inhibition” value was inactive: -1.75%.

Take `COc1cc2c(cc1OC)-c1cc(=Nc3c(C)cc(C)cc3C)n(C)c(=O)n1CC2`: the “activity change, negative = inhibition” value is inactive: -8.41%.

On to `CC1=C(C(=O)O)N2C(=O)C(NC(=O)C(N)C3=CCC=CC3)C2SC1` (stereo not drawn), for which the “activity change, negative = inhibition” value was inactive: -1.42%.

For `O=C(O)c1cccc(-n2cccc2/C=C2/NC(=O)N(c3ccc(Cl)cc3)C2=O)c1`, the Potency is active: 3.55 µM.

`CCSC(=N)N`: the Potency result was “inactive”.

`CC(=O)c1ccc(S(=O)(=O)NC(=O)NC2CCCCC2)cc1`: the Potency result is “inactive”.

For the molecule `Nc1c(/C=C2/C=CC(=O)C(O)=C2)c(=O)nc2sc(CC(=O)N3CCCCC3)nn12`, the Potency was active: 28.2 µM.

For `Nc1ncn([C@@H]2O[C@H](CO)[C@@H](O)[C@H]2O)c(=O)n1`, the “activity change, negative = inhibition” value is inactive: -5.47%.

In the case of `COc1ccc(CN(CCN(C)C)c2ccccn2)cc1`, the Potency entry was “inactive”.

Regarding `Cc1ccc2c(c1)C1C=CCC1C(C(=O)O)N2` (stereo not drawn), the Potency was active: 14.1 µM.

As for `C[C@@H](/C=C\c1cccc(Oc2ccc(F)cc2)c1)N(O)C(N)=O`, the “activity change, negative = inhibition” value was inactive: -10.4%.

Take `CCN1/C(=C\C(C)=O)Sc2ccc(OC)cc21`: the “activity change, negative = inhibition” value was inactive: -0.473%.

Turning to `c1ccc(C2CN3CCSC3=N2)cc1` (stereo not drawn), the Potency entry was “inactive”.

Consider `COc1cc(/C=N/NC(N)=O)ccc1OCC(=O)Nc1ccc(C)c(C)c1`, for which the Potency was active: 10 µM.

Turning to `O=C(CSc1nnc2scc(-c3ccccc3)n12)Nc1nsc(-c2ccccc2)n1`, the Potency is active: 20 µM.

For `NCCC(=O)NCCc1cnc[nH]1`, the “activity change, negative = inhibition” value is inactive: 1.48% [at 21.4 µM].

Turning to `CC(=O)OCC1=C(C(=O)O)N2C(=O)C(NC(=O)Cc3cccs3)C2SC1` (stereo not drawn), the “activity change, negative = inhibition” value was inactive: 25.2%.

As for `C[C@]12CCC3c4ccc(O)cc4CCC3[C@@H]1CCC2=O` (stereo partly drawn), the “activity change, negative = inhibition” value was inactive: -0.716% [at 21.4 µM].

Take `Cc1ccccc1/C=C/c1nc2ccccc2c(=O)[nH]1`: the “activity change, negative = inhibition” value was inactive: -21.7%.

Consider `COc1ccccc1NC(=O)Cn1c(O)c(N=NC(=O)c2ccccc2O)c2ccccc21`, for which the Potency is active: 17.8 µM.

As for `CS(=O)(=O)c1ccc2c(c1)sc1nc(=O)c(/C=C3/C=CC(=O)C(O)=C3)c(N)n12`, the Potency was active: 25.1 µM.

In the case of `CN(C)CCC[C@]1(c2ccc(F)cc2)OCc2cc(C#N)ccc21`, the “activity change, negative = inhibition” value was inactive: 0.67%.

As to `C=CCN1CCc2cc(O)c(O)cc2[C@H](c2ccccc2)C1`, the “activity change, negative = inhibition” value was inactive: 3.63%.

Take `O=C1C(Cl)=C(NC2CCc3ccccc32)C(=O)c2ncccc21` (stereo not drawn): the Potency is active: 2.51 µM.
